# According to PubChem BioAssay AID488969 (Vanderbilt High Throughput Screening Facility, 2010):
# The full ranking holds about 110,000 compounds; the median of “z-score” is about -0.1, and the highest 2% start at about 2. The list shows a part of the results.
# Target: Metabotropic glutamate receptor 8 (Rattus norvegicus) (UniProt P70579)
# Assay: rat mGluR8 modulators via GIRK flux, primary screen, cell-based, thallium flux, HTS (AID 488969)
# Conditions: HEK293 rat mGluR8, GIRK (G protein-gated inwardly rectifying potassium channel) thallium flux, FluoZin2; at 10 µM; stronger effect = higher value; submaximal glutamate (EC20) added with thallium
# Chain of UniProt P70579 (P70579 whole entry, looked up): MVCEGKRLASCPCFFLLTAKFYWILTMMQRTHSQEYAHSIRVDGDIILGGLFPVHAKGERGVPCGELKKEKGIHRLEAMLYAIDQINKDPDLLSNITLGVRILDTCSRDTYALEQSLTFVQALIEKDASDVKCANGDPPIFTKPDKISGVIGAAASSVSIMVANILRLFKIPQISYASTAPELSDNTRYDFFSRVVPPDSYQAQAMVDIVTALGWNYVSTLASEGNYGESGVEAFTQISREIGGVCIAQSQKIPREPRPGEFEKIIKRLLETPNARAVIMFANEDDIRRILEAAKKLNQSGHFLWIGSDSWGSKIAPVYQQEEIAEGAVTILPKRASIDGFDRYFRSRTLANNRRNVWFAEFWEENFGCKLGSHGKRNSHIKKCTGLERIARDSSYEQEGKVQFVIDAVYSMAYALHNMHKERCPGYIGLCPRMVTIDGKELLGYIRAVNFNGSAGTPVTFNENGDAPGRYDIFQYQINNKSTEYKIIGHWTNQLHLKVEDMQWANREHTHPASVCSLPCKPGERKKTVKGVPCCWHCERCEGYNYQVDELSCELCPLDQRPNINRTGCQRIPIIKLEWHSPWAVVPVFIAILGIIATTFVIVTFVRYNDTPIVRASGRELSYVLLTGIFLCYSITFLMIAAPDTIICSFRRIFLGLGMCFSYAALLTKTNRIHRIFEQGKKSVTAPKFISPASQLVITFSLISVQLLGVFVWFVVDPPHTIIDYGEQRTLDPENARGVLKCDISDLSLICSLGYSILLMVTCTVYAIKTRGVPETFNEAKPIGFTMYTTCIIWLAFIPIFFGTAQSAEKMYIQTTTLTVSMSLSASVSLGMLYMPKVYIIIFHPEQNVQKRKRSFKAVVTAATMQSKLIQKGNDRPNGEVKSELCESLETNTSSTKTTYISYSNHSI
row,SMILES,z-score
1,CCCCN(CC)S(=O)(=O)N1CCC(C(=O)NCc2ccc(F)cc2)CC1,-1.05
2,Cc1ccc(-c2nc(CS(=O)CC(=O)NCCN3CCOCC3)c(C)o2)cc1 (centres undefined),-0.152
3,COC(=O)c1cc2c(C)c(C)c3ccccn3c-2c1C(=O)OC,-0.43
4,COc1ccc(NC(=O)c2cc(-c3cc(C)ccc3O)n[nH]2)cc1Cl,0.882
5,CC1CCc2nc(NC(=O)CN3CCOCC3)sc2C1 (centres undefined),-0.313
6,Cc1cc(C)cc(OCC(=O)NNC(=O)c2ccoc2C)c1,0.366
7,Cc1ccc(C)n1Cc1ccc(C(=O)O)cc1,0.41
8,CCOC(=O)C(CC)(CCC(=O)O)c1csc(N)n1 (centres undefined),-0.255
9,CCn1c(SCC(=O)Nc2ccc(Cl)cc2)nc2nc3c(cc2c1=O)CCCC3,0.452
10,CCOC(=O)c1[nH]c(C)c(C(=O)Nc2ccccc2F)c1C,-0.186
11,CC(C)n1c(-c2ccccc2F)n[nH]c1=S,0.0711
12,C=CCn1c(=NC(=O)c2sc3ccccc3c2Cl)sc2cc(S(N)(=O)=O)ccc21,-0.381
13,COc1ccc(/C=C(/C(=O)c2ccc(Cl)cc2Cl)n2cncn2)cc1,0.0171
14,CN1C(=O)C(=O)N(CC(=O)N2CCc3ccccc32)C1=O,-0.086
15,CCCCNC(=O)c1onc(CSc2ccc(F)c(F)c2)c1C(=O)O,-0.554
16,Cc1ccc(Nc2cc(C)nc3nnnn23)cc1,0.273
17,Cc1ccc(OCC(=O)N2CCN(C(=O)c3cccnc3)CC2)cc1,0.109
18,CC(C)(C)C1=C(C#N)C(c2ccc3c(c2)OCO3)C(C#N)=C(N)O1 (centres undefined),0.0361
19,Cc1noc(NS(=O)(=O)c2ccc(NC(=O)CSc3n[nH]c(-c4ccccc4)n3)cc2)c1C,0.142
20,CCOC(=O)N1CCC(n2c(SCC(=O)N3CCC(C)CC3)nc3ccccc3c2=O)CC1,-0.612
21,CCNc1nc(NCC)n2c(SCC(=O)NCC3CCCCC3)nnc2n1,0.151
22,Cc1cc(C)c(C#N)c(N2CCN(Cc3ccccc3)CC2)n1,-0.124
23,Cc1ccc(C)c(-n2c(SCC(N)=O)nnc2-c2ccccn2)c1,-0.142

row,SMILES,z-score
1,COc1cc(/C=N/NC(=O)C(C)Nc2n[nH]c(=O)[nH]c2=O)ccc1O (centres undefined),0.895
2,CN(c1ccc(C(=O)NCCSCc2ccc(Cl)cc2)cc1)S(=O)(=O)c1ccccc1,-0.308
3,Cc1ccnc(N2CCN(c3cc(C)c(C#N)c4nc5ccccc5n34)CC2)c1,-0.662
4,Cc1ccc(Nc2c([N+](=O)[O-])ccc3c2=NC2(CCCCC2)N=3)cc1,-0.514
5,CC(C)(C)N1C(=O)c2ccc(C(=O)Nc3ccc(-c4nc5ccccc5[nH]4)cc3)cc2C1=O,-0.0992
6,CCn1cc(C(=O)NCCCN(C)C)c(=O)c2cc(F)c(N3CCN(C)CC3)cc21,-0.393
7,C=C(C)C1CC=C(C)/C(=N/NC(=O)CNc2ccc(C)cc2C)C1 (centres undefined),-0.284
8,O=C(COC(=O)Cc1ccc(Cl)cc1Cl)Nc1ccccc1OC(F)F,0.137
9,C=CCn1c(-c2sccc2C)n[nH]c1=S,-0.312
10,CCc1ccc(N(C2C=CS(=O)(=O)C2)S(=O)(=O)c2ccccc2)cc1 (centres undefined),-0.443
11,Cc1ccc(NC(=O)COC(=O)C2CC2C)c(S(=O)(=O)N2CCCCC2)c1 (centres undefined),2.07
12,CCCn1nc(CC(=O)OCC)c2ccccc2c1=O,0.73
13,COc1ccc(-n2cnnc2SCC(=O)NC2CCS(=O)(=O)C2)cc1 (centres undefined),-0.346
14,c1ccc(CSc2nnc(-c3cccs3)n2Cc2ccco2)cc1,-2.3
15,CC1Cc2ccccc2N1S(=O)(=O)c1cccc(C(=O)OCC(=O)NC2CCS(=O)(=O)C2)c1 (centres undefined),-0.631
16,COc1cc(/C=N/NC(=O)c2cc(C34CC5CC(CC(C5)C3)C4)[nH]n2)ccc1O,-0.235
17,CCOC(=O)c1ccc(NC(=O)CSc2nnc(-c3cccs3)n2CC)cc1,-0.889
18,CCCNC(=O)C1CCN(S(=O)(=O)c2ccc(Br)cc2)CC1,0.249
19,Cc1cccc(NC(=O)c2oc(=O)c3ccccc3c2-c2ccccc2)c1C,-0.014
20,COc1ccccc1NC(=S)NC1CCCCCC1,-0.25
21,CCOC(=O)CCCCCN(Cc1ccccc1)S(=O)(=O)c1ccc([N+](=O)[O-])cc1,-0.261
22,CCOC(=O)Cn1c2c(c(-c3ccccc3OC)cc1=O)CCCC2,-0.0532
23,O=[N+]([O-])c1cc(CN2CCCC2)c2cccnc2c1O,-0.43

row,SMILES,z-score
1,COc1ccc(O)c(C(=O)c2cc(C#N)c(=O)n(CCN3CCOCC3)c2)c1,0.984
2,O=C(COC(=O)C1=COCCO1)Nc1ccccc1Oc1ccccc1,0.0942
3,CCOc1ccc2[nH]c(=O)c(CN(Cc3ccco3)C(CC)c3nnnn3Cc3ccccc3)cc2c1 (centres undefined),-0.673
4,O=C1c2ccncc2C(=O)N1Cc1cccc(Cl)c1,-0.194
5,Cc1cc(-c2nc3ncccc3o2)ccc1NC(=O)CC(C)C,0.87
6,COc1ccc(S(=O)(=O)Nc2ccc(NC(C)=O)cc2)cc1,0.624
7,COc1ccc(S(=O)(=O)NC(CC(=O)N2CCc3ccccc32)c2ccco2)cc1 (centres undefined),-0.18
8,O=C(CN1CCN(c2ccc(O)cc2)CC1)Nc1cc([N+](=O)[O-])ccc1Cl,-0.485
9,CCCCCCCNC(=O)COc1ccc2c(c1)C(=O)CC(C)(C)O2,-0.554
10,COc1ccc(Cl)cc1N(CC(=O)N/N=C/c1ccc(OC(C)C)cc1)S(=O)(=O)c1ccc(C)c([N+](=O)[O-])c1,-0.111
11,COc1ccc2nc(NC(=O)c3ccc(-c4cccc([N+](=O)[O-])c4)o3)sc2c1,0.0933
12,O=C(Cn1cnc2sc(-c3ccccc3)cc2c1=O)N1CCOCC1,-0.224
13,CCC(=O)c1ccc(OCC(O)CN(C)C2CCCCC2)cc1 (centres undefined),0.0787
14,O=C(Nc1ccccc1C(=O)O)c1cccc(NC(=O)c2ccc(Br)o2)c1,-1.87
15,O=C1C(c2ccccc2)C(c2ccccc2)NC(c2ccccc2)C1c1ccccc1 (centres undefined),0.00927
16,COc1ccc(S(=O)(=O)N2CCCCC2)cc1,0.442
17,Cc1cc(N/N=C/c2ccccc2)nc(NCc2ccccc2)n1,-0.172
18,Cc1noc(NS(=O)(=O)c2ccc(N3C(=O)c4ccccc4C3=O)cc2)c1C,0.00423
19,CS/C(=N\S(=O)(=O)c1cccs1)Nc1ccc(Br)cc1F,-0.63
20,CCCc1nc2c(nnn2Cc2ccccc2F)c(=O)[nH]1,-0.14
21,COCCCNC(=O)Cn1ncc2ccsc2c1=O,-0.327
22,COC(=O)c1c(NC(=O)c2ccco2)sc(C(=O)N(C)C)c1C,-0.412
23,c1ccc(-c2cnnc(N3CCOCC3)n2)cc1,0.147
